PubChem BioAssay AID1030 (National Center for Advancing Translational Sciences (NCATS), 2008)
Several values for one entry are separate records, joined by “and”; a condition that tells them apart may be missing. Identical values can stand only once. Among all 220,000 compounds or so, about 16,000 (7.3%) were called active. The inconclusive results got no clear call from the source; some entries with a clear call stand among them for comparison. Calls follow the shape of the dose curve; as a rule, active = well fitted inhibition curve with a large enough effect (not every such curve was filed as active); inconclusive = small, poorly fitted or top-dose-only effect, or another doubt; inactive = no such curve, though single readings can be large or run the other way. Potencies of inconclusive entries are doubtful fits and often do not repeat.

Each compound was assayed against Aldehyde dehydrogenase 1A1 (Homo sapiens) (UniProt P00352) (assay: qHTS Assay for Inhibitors of Aldehyde Dehydrogenase 1 (ALDH1A1)). Conditions: Purified ALDH1A1, NADH fluorescence, propionaldehyde substrate; series mostly up to 75.3 µM; activity, negative = inhibition: at the top concentration.
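For activity, negative = inhibition in this document: plate controls were no enzyme wells and a reference inhibitor.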
Potency is read from the fitted curve at half-maximal effect; tags tell the direction and shape of the fitted curve.

UniProt P00352, sequence (P00352 whole entry, looked up): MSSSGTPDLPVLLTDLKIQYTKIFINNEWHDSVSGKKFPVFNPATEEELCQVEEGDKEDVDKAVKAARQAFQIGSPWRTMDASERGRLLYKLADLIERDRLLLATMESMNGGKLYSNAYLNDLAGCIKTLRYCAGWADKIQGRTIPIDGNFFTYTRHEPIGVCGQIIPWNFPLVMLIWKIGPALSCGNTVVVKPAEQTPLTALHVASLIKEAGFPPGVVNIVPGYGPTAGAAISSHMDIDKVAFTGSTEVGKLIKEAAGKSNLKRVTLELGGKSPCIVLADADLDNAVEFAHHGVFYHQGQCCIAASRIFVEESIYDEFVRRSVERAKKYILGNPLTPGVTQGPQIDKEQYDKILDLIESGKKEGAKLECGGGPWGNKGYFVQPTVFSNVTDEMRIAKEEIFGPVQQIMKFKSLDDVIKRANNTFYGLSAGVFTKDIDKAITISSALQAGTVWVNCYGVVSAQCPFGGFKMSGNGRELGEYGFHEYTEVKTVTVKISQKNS

Potency, active:
O=C(Nc1cccnc1)c1noc2c1CCCC2 22.4 µM
COC(=O)c1sc(=S)n(Cc2ccccc2)c1C 8.91 µM
COc1ccccc1N1CCN(/N=C/c2cc([N+](=O)[O-])ccc2Cl)CC1 22.4 µM
COc1ccc(NC(=O)CNc2ccc(C#N)cc2)cc1 22.4 µM
O=C(CN1CCN(c2ccc(O)cc2)CC1)Nc1ccc(SC(F)F)cc1 8.91 µM
C=CCN1C(=O)/C(=C2\SC(N3CCOCC3)=NC2=O)c2cc(Br)ccc21 3.55 µM
O=C1CC(N2CCN(c3ccc(O)cc3)CC2)C(=O)N1Cc1cccs1 (stereo not drawn) 25.1 µM

Potency, inconclusive:
CCN1CCCC1CN=Cc1c(O)n(-c2ccccc2)c(=O)c2ccccc12 (stereo not drawn) 31.6 µM [inhibitor, single point]
CCOc1cc(N2CCOCC2)c(OCC)cc1NC(=O)c1c(-c2ccccc2Cl)noc1C 39.8 µM [inhibitor, single point]
CC1=C(C(=O)N2CCOCC2)C(c2cccc(C)c2)NC(=S)N1 (stereo not drawn) 28.2 µM [inhibitor, partial curve]
CC(=O)Nc1nonc1-c1nc2ccccc2n1CC1CC1 35.5 µM [inhibitor, single point]
Cc1cccc(-c2ncc(CN3CCN(C4CCCC4)C(CCO)C3)cn2)c1 (stereo not drawn) 25.1 µM [inhibitor, partial curve]
CN(c1ccc([N+](=O)[O-])cc1C(=O)Nc1ccccc1)C1CCCCC1 31.6 µM [inhibitor, single point]
CC(=O)Nc1ccccc1C(=O)C(=O)Nc1cccc(Br)c1 25.1 µM [inhibitor, single point]
COc1ccc(C(=O)NCc2nnc(SCC(=O)N3CCCc4ccccc43)o2)cc1OC 3.16 µM [inhibitor, single point]
COC(=O)c1ccc(CSc2nc3ccccc3c(=O)n2CC(C)C)o1 22.4 µM [inhibitor, single point]
Fc1cccc(CN2CCN(C(=S)NCCc3ccccc3)CC2)c1 11.2 µM [inhibitor, partial curve]
N#C/C(=C\c1ccccn1)c1nc2ccccc2s1 39.8 µM [inhibitor, single point]
O=c1cnc2cnc(OCc3ccccc3)nc2n1CCc1ccccc1 25.1 µM [inhibitor, single point]
Cc1sc2nc(SCC(=O)N3CCCCC3)[nH]c(=O)c2c1C 5.01 µM [inhibitor, full curve]
CCCC1C(C(=O)OCC)=C(C)NC(C)=C1C(=O)OCC 39.8 µM [inhibitor, partial curve]
CC(C)Oc1ccc(C(CC(=O)N(C)CCC#N)c2ccc(F)cc2)cc1 (stereo not drawn) 25.1 µM [inhibitor, partial curve]
CSc1nc2ncc3c(n2n1)CC1c2ccccc2CCN1C3=O (stereo not drawn) 31.6 µM [inhibitor, single point]
O=C(NCCC1=CCCCC1)C1CC(=O)N(C2CCCCCC2)C1 (stereo not drawn) 14.1 µM [inhibitor, partial curve]
COc1ccc(C(=O)N/N=C/c2cc3ccccc3[nH]c2=O)cc1 22.4 µM [inhibitor, partial curve]
COCCNc1cc(-c2ccccc2C)ncn1 39.8 µM [inhibitor, single point]
Cc1ccc(C(=O)NCCCN2CCOCC2)o1 39.8 µM [inhibitor, single point]
Cc1cccc(-c2nsc(SCC(=O)c3ccc(Cl)cc3)n2)c1 5.01 µM [inhibitor, full curve]
COc1c2ccoc2nc2c(OC)c(OCC(OC(C)=O)C(C)(C)O)ccc12 (stereo not drawn) 35.5 µM [inhibitor, partial curve]
CCOC(=O)c1c(C)nc2sc(C(=O)Nc3ccccc3)c(N)c2c1-c1ccc(OC)cc1 39.8 µM [inhibitor, single point]
CCOC(=O)c1sc2nc(C(C)C)c3c(c2c1N)CCC3 25.1 µM [inhibitor, partial curve]
COC(CNC(=O)c1ccc2nc(-c3cccs3)c(-c3cccs3)nc2c1)OC 31.6 µM [inhibitor, partial curve]

activity, negative = inhibition, inactive:
Cc1c(C(=O)N2CCN(Cc3ccc4c(c3)OCO4)CC2)cccc1[N+](=O)[O-] 1.9%
CN(Cc1ccccc1)S(=O)(=O)c1ccc(NC(=S)NC(=O)C2CCCCC2)cc1 -2.92%
CCOC(=O)c1ccc[n+](CC(=O)Nc2ccccc2OC(F)F)c1 3.54%
Cc1ccc(C(=O)NNC(=O)C(C)Sc2nc(N)cc(N)n2)cc1 (stereo not drawn) 16%
O=C(CN1C(=O)C(=O)N(Cc2ccccc2)C1=O)Nc1ccc(F)c(Cl)c1 3.79%
N#CC(C#N)=C1C=CC=CN1/C(=C\c1ccco1)C(=O)c1ccccc1 -7.09%
O=C(N1CCOCC1)n1cnc2ccccc21 -2.64%
CC(C)(C)N1C(=O)[C@H]2[C@@H]3[C@H](O)[C@H](O)CC(=O)[C@H]3CC[C@H]2C1=O 6.66% [at 13.5 µM] and 7.21% [at 13.5 µM]
CCn1c(=O)c(C(=O)Nc2ccccc2C)c(O)c2ccccc21 16.6%
CCC[C@@H]1C[C@@]1(CCC)C(NC(=O)c1ccccc1)c1cccc(Cl)c1 (stereo partly drawn) 2.97%
CN1CCCC2(CCN(C(=O)c3cc(C(F)(F)F)cc(C(F)(F)F)c3)CC2)C1 11.1%
CC(=O)Nc1ccc(C2=NN(Cc3nnc(-c4ccccc4)o3)C(=O)SC2)cc1 -10%
COc1ccccc1-n1cccc1C=O -0.0767%
Cc1c(C(N)=O)sc2ncn(CC(=O)N3CCC(C)CC3)c(=O)c12 -6.47%
COC(=O)CSc1nc2nc(C)c(Br)cc2[nH]1 -8.7%
Cc1[nH][nH]c(=O)c1C(c1cc([N+](=O)[O-])ccc1O)c1c(C)[nH][nH]c1=O -2.84%
